Test results published in PubChem BioAssay AID1347165 (National Center for Advancing Translational Sciences (NCATS), 2019).
Values joined by “and” are separate entries in the source; they are usually repeats but may differ in a detail not shown here. Equal values may be shown once. Among all 220,000 compounds or so, about 5,700 (2.6%) were called active. This list was built around the results that the source calls inconclusive (neither active nor inactive); the mix of calls is not that of the screen. Calls follow the shape of the dose curve; as a rule, active = well fitted inhibition curve with a large enough effect; inconclusive = small, poorly fitted or top-dose-only effect; inactive = no such curve, though single readings can be large or run the other way. Where the call is inconclusive, the potency comes from a doubtful curve fit.

Each molecule was assayed against Lysine-specific demethylase 5B (Homo sapiens) (UniProt Q9UGL1) (assay: Primary screen for KDM5B Histone Demethylases FDH-coupled qHTS). Conditions: FDH-coupled NADH fluorescence (FDH is formaldehyde dehydrogenase); activity change, negative = inhibition: at 57.7 µM (top of the series) unless noted.
Procedure, shortened: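 Compound dilutions met 200 nM (final) KDM5BΔAP for 10 min at room temperature before substrate addition. The substrate mix held 12.5 µM H3K4me3 with cofactors 25 µM α-ketoglutarate and 50 µM Fe²⁺. NADH signal gain over 30 min defined activity.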
Also: nearly all actives have a fitted effect of over 70% in size.
For activity change, negative = inhibition in this document: 0% is about no effect.
Potency is read from the fitted curve at half-maximal effect; tags tell the direction and shape of the fitted curve.

Chain of UniProt Q9UGL1 (Q9UGL1 whole entry, looked up): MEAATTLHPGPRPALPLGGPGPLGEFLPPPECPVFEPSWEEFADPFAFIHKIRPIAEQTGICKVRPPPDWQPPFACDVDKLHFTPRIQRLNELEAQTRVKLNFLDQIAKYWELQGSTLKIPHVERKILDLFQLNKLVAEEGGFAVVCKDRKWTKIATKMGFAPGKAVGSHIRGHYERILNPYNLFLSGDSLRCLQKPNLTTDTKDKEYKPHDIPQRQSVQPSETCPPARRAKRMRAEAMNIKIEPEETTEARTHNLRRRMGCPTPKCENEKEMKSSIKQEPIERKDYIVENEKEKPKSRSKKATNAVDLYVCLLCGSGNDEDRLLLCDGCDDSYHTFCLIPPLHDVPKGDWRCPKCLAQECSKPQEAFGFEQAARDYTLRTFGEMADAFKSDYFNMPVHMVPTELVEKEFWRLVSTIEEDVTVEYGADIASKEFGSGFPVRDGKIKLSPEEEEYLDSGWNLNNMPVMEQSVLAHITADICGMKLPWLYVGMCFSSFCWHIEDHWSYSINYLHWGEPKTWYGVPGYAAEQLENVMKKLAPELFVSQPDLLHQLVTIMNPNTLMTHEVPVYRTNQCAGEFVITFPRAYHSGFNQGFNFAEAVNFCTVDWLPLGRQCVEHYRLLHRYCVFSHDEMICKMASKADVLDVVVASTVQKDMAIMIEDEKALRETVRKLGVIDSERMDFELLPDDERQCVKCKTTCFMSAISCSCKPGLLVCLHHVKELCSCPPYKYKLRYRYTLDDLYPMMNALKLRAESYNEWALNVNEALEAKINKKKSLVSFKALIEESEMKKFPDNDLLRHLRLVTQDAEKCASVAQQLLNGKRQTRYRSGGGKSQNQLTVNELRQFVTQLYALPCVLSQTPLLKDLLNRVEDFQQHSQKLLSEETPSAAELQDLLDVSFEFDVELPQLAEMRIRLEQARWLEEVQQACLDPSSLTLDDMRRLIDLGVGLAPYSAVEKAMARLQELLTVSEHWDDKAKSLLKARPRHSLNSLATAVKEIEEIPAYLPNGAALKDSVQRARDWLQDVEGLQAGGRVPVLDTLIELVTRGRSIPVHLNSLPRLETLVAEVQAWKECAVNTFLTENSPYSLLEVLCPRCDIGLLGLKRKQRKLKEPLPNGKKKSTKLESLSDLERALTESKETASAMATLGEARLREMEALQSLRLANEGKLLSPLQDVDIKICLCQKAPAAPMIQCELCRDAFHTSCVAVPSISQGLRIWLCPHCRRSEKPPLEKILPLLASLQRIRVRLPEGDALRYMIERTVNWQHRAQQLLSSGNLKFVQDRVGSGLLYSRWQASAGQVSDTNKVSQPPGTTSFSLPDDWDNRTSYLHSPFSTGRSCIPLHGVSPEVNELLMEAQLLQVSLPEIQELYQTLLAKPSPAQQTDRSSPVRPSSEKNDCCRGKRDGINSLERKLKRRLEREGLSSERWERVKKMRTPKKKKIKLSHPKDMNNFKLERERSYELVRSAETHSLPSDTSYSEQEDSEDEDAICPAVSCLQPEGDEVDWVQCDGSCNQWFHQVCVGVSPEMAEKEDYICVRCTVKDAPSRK

Structure (SMILES)	activity change, negative = inhibition	Potency
CC(NC(=O)CC12CC3CC(CC(C3)C1)C2)C1CC2CCC1C2 (stereo not drawn)	inactive: -6.62%	–
C=C(C)COc1ccc2c(=O)c(Oc3ccc(C(=O)OC)cc3)coc2c1	inactive: -4.23%	–
Cc1cn2nc(C(=O)N3CCC(C(=O)NCCc4ccccc4)CC3)cc2c(=O)[nH]1	inactive: 0.215%	–
Cc1ccc(NC(=O)CN(C)C(=O)c2oc3ccccc3c2C)cc1	inactive: 10.6%	–
CCn1cc2nc(SCc3cccc(OC)c3)n(Cc3ccc(Cl)cc3)c(=O)c2n1	–	inconclusive: 1.12 µM [inhibitor, full curve, poor fit]
CC(=O)N1Cc2ccccc2CC2(CCCN(Cc3ccccc3)C2)C1 (stereo not drawn)	inactive: 4.69% [at 149 µM]	–
O=c1cc(O)c2sc3nc(-c4cccs4)cc(-c4cccs4)c3c2[nH]1	–	inconclusive: 25.1 µM [inhibitor, single point] and inconclusive: 22.4 µM [inhibitor, partial curve, poor fit]
Cc1ccc(-c2noc([C@@H]3C[C@H](NS(=O)(=O)c4ccc5ccccc5c4)CN3C)n2)cc1	–	inconclusive: 28.2 µM [inhibitor, single point]
c1ccc(CCc2nc3nccc(-c4ccc5c(c4)OCCCO5)n3n2)cc1	–	inconclusive: 15.8 µM [inhibitor, partial curve, poor fit]
COc1ccccc1CCNC(=O)c1cc2ccccn2n1	–	inconclusive: 17.8 µM [inhibitor, partial curve, poor fit]
CC1=C[C@@H](CO)[C@H](C(C)C)C[C@H]1Cc1nnc(-c2ccc(N(C)C)cc2)o1	–	active: 31.6 µM
Oc1ccc(-n2nnnc2SCc2ncc(-c3ccccc3)o2)cc1	inactive: -12%	–
CCCCNc1cc(NC2CCCCC2)c2c3c(onc13)-c1ccccc1C2=O	–	inconclusive: 10 µM [inhibitor, partial curve, poor fit]
Cc1noc2c(-c3ccsc3)cc(-c3cccnc3)nc12	–	inconclusive: 31.6 µM [inhibitor, single point]
C/C(Cc1ccccc1)=N\NC(N)=S	inactive: -10.7%	–
Cc1nn(Cc2ccccc2)c(C)c1[C@@H]1C=C[C@@H](NC(=O)Nc2ccccc2)C1	–	inconclusive: 39.8 µM [inhibitor, partial curve, poor fit]
CCCN1CCN(CC(O)COC(c2ccc(OC)cc2)c2ccc(OC)cc2)CC1 (stereo not drawn)	–	inconclusive: 22.4 µM [inhibitor, partial curve, poor fit]
CC(OC(=O)c1cc(C2CC2)nn1-c1ccccc1)C(=O)Nc1ccc(N(C)C)cc1 (stereo not drawn)	inactive: 11.9%	–
COc1ccc(Cl)cc1NC(=O)CN1c2ccccc2S(=O)(=O)c2ccccc21	–	inconclusive: 35.5 µM [inhibitor, partial curve, poor fit]
CC(C)CNc1ccc2c(n1)C(C)(C(=O)NC1CCC(O)CC1)CN(Cc1ccccc1)C2 (stereo not drawn)	inactive: 222%	–
COc1ccc(C(=O)/C(C#N)=C\c2ccccc2C(F)(F)F)cc1	–	inconclusive: 39.8 µM [inhibitor, single point]

Structure (SMILES)	activity change, negative = inhibition	Potency
Cc1cc(C)nc(S/C=C/C(=O)c2ccccc2)n1	–	inconclusive: 35.5 µM [inhibitor, partial curve, poor fit]
CCOC(=O)c1c(/N=C/c2ccc(OC)cc2O)sc2c1CCN(C)C2	–	inconclusive: 12.6 µM [inhibitor, partial curve, poor fit]
Cc1cccc2c(N)ccnc12	–	inconclusive: 17.8 µM [inhibitor, single point]
O=C(NC1CC(=O)N(c2cccc(F)c2)C1)C1CCCCC1 (stereo not drawn)	inactive: -13.7%	–
COc1ccc(N2C(=O)C(CC(=O)Nc3ccc(F)cc3)N(CCC3=CCCCC3)C2=O)cc1 (stereo not drawn)	–	inconclusive: 39.8 µM [inhibitor, single point]
CCc1ccc(CNC(=O)CN2C(=O)NC3(CCS(=O)(=O)CC3)C2=O)cc1	inactive: 16.9%	–
CCC(=O)N1N=C(c2c(-c3ccccc3)c3cc(C)ccc3[nH]c2=O)CC1c1ccco1 (stereo not drawn)	–	inconclusive: 28.2 µM [inhibitor, partial curve, poor fit]
CN(C(=O)Nc1cn(C)c(=O)c2ccccc12)c1ccccc1	–	inconclusive: 17.8 µM [inhibitor, partial curve, poor fit]
Cc1nc(C(=O)N2CC[C@H](NS(=O)(=O)c3cn(C)cn3)C[C@H]2C(=O)N[C@H](CC(C)C)C(N)=O)cs1	inactive: -5.5%	–
CC1CCc2c(sc(NC(=O)c3ccccc3OC(F)F)c2C(N)=O)C1 (stereo not drawn)	inactive: -24.3%	–
COc1ccc2[nH]c3c(c2c1)CCNC31CCN(S(=O)(=O)c2cn(C)cn2)CC1	–	inconclusive: 31.6 µM [inhibitor, single point]
COc1cccc(CNC(=O)CCC(=O)N2CC3CCCN3c3ccccc32)c1 (stereo not drawn)	–	inconclusive: 15.8 µM [inhibitor, partial curve, poor fit]
Cc1ccc(Nc2nc(C(=O)OCC(=O)c3ccc(C)cc3)cs2)cc1	inactive: 3.98%	–
COc1ccc(-c2nc(C)nc3c2CN(C(=O)c2ccccc2OC)CC3)cc1	–	inconclusive: 17.8 µM [inhibitor, full curve, poor fit]
Cc1cccc(CN2CCCCCCN(C)C(=O)[C@@H]3CCC[C@@H]32)c1	–	inconclusive: 25.1 µM [inhibitor, partial curve, poor fit]
Cc1ccccc1NC(=O)CN(C)S(=O)(=O)c1cccc2nsnc12	–	inconclusive: 39.8 µM [inhibitor, single point]
O=C(Nc1ccccc1)N1Cc2[nH]cnc2C[C@H]1c1nc(-c2ccc3c(c2)OCO3)no1	inactive: -19.6% [at 86.2 µM]	–
CCCc1cc(=O)oc2cc(C)cc(OCC(=O)NCc3ccncc3)c12	–	inconclusive: 25.1 µM [inhibitor, partial curve, poor fit]
COCCCNc1ncnc2c1CN(C1CCNC1)C(=O)CN2C (stereo not drawn)	–	inconclusive: 63.1 µM [inhibitor, partial curve, poor fit]
CC(=O)Nc1nc(NC(=O)C(Cl)(Cl)Cl)n(-c2ccccc2)n1	–	inconclusive: 10 µM [inhibitor, partial curve, poor fit]
Cc1c(-c2ccccc2)oc2c(C(=O)OCC(=O)NC3CCC(C)CC3)cccc2c1=O (stereo not drawn)	inactive: -5.67%	–

Structure (SMILES)	activity change, negative = inhibition	Potency
Cc1cccc(NC(=O)Cn2nc(N3CCN(c4ccccc4)CC3)ccc2=O)c1C	–	inconclusive: 44.7 µM [inhibitor, single point]
COc1ccccc1OCc1ccc(C(=O)Nc2ccc(C)c(C)c2)o1	–	inconclusive: 22.4 µM [inhibitor, partial curve, poor fit]
COc1cc2ccccc2cc1C(=O)NNC(=O)c1ccccc1O	–	inconclusive: 28.2 µM [inhibitor, partial curve, poor fit]
CCOC(=O)CNC(=O)c1cc2cccc(OCC)c2oc1=O	inactive: -25.2%	–
COC(=O)[C@@H]1Cc2ncn(Cc3ccc(Cl)cc3)c2CN1S(=O)(=O)c1ccc(OC)cc1	inactive: -15.7%	–
COc1ccccc1CNC(=O)c1ccccc1	inactive: 22%	–
O=C1c2ccccc2NC(c2ccccc2)N1CCCN1CCOCC1 (stereo not drawn)	–	inconclusive: 28.2 µM [inhibitor, partial curve, poor fit]
COCCn1cnc2c1c(=O)n(Cc1cc(C(C)=O)ccc1OC)c(=O)n2Cc1ccccc1	–	inconclusive: 1 µM [inhibitor, full curve, poor fit]
O=S(=O)(Nc1nc2ccccc2nc1NCc1ccccc1)c1ccccc1	–	inconclusive: 22.4 µM [inhibitor, partial curve, poor fit]
N#Cc1nc(-c2ccccc2F)oc1NCc1ccc2c(c1)OCO2	–	inconclusive: 22.4 µM [inhibitor, partial curve, poor fit]
CC(=O)c1ccc(N2CCN(CC(O)COC(c3ccccc3)c3ccccc3)CC2)cc1 (stereo not drawn)	–	inconclusive: 25.1 µM [inhibitor, partial curve, poor fit]
COc1ccc(F)cc1-c1ccc(CN)cc1	–	inconclusive: 112 µM [inhibitor, partial curve]
O=C(O)CN1C(=O)/C(=C\c2cc(Br)ccc2OCc2ccccc2F)SC1=S	–	inconclusive: 35.5 µM [inhibitor, partial curve, poor fit]
Cc1cccc(OCC2(CNC(=O)c3cc(C)on3)C[C@@H](O)[C@@H](O)C2)n1 (stereo partly drawn)	–	inconclusive: 39.8 µM [inhibitor, partial curve]
COc1cc(C(=O)Nc2ccc(-c3cc(C(F)(F)F)nn3-c3ccccc3)cc2)cc(OC)c1OC	–	inconclusive: 20 µM [inhibitor, partial curve, poor fit]
COc1ccccc1CNc1nc(-c2ccco2)nn1S(=O)(=O)c1ccc(Cl)cc1	–	inconclusive: 8.91 µM [inhibitor, partial curve, poor fit]
Cc1ccc(NC(=O)c2nc(S(=O)(=O)Cc3cccc(C)c3)ncc2Cl)cc1	–	inconclusive: 14.1 µM [inhibitor, partial curve, poor fit]
CCCN(CCC)C(=O)c1c[nH]c2ccc(S(=O)(=O)Nc3cc(C)cc(C)c3)cc2c1=O	–	inconclusive: 15.8 µM [inhibitor, partial curve, poor fit]
O=C(Nc1cccc(-c2ccc(N3CCOCC3)nn2)c1)Nc1cc(F)ccc1F	–	inconclusive: 31.6 µM [inhibitor, single point]
Cc1cc(C(=O)NCC2(COc3cnccn3)C[C@@H](O)[C@@H](O)C2)no1 (stereo partly drawn)	–	inconclusive: 28.2 µM [inhibitor, partial curve, poor fit]
COc1ccc(OC)c(CNC(=O)c2cc(-c3ccc(Cl)s3)nc3ccccc23)c1	inconclusive: -47.1% [inhibitor]	–
